Among all 310,000 compounds or so, about 14,000 (4.5%) showed an effect of 50% or more. The effect is printed as a negative number. Some of the results follow.
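Also: peak tail current of the secondary pulse compared with the same well before compound.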

The target in this experiment is human ether-à-go-go-related gene (hERG) potassium channel (human, UniProt Q12809). The experiment can be described thus: primary screen, population patch clamp on CHO cells stably expressing hERG.
Chain of human ether-à-go-go-related gene (hERG) potassium channel (Q12809 whole entry, looked up): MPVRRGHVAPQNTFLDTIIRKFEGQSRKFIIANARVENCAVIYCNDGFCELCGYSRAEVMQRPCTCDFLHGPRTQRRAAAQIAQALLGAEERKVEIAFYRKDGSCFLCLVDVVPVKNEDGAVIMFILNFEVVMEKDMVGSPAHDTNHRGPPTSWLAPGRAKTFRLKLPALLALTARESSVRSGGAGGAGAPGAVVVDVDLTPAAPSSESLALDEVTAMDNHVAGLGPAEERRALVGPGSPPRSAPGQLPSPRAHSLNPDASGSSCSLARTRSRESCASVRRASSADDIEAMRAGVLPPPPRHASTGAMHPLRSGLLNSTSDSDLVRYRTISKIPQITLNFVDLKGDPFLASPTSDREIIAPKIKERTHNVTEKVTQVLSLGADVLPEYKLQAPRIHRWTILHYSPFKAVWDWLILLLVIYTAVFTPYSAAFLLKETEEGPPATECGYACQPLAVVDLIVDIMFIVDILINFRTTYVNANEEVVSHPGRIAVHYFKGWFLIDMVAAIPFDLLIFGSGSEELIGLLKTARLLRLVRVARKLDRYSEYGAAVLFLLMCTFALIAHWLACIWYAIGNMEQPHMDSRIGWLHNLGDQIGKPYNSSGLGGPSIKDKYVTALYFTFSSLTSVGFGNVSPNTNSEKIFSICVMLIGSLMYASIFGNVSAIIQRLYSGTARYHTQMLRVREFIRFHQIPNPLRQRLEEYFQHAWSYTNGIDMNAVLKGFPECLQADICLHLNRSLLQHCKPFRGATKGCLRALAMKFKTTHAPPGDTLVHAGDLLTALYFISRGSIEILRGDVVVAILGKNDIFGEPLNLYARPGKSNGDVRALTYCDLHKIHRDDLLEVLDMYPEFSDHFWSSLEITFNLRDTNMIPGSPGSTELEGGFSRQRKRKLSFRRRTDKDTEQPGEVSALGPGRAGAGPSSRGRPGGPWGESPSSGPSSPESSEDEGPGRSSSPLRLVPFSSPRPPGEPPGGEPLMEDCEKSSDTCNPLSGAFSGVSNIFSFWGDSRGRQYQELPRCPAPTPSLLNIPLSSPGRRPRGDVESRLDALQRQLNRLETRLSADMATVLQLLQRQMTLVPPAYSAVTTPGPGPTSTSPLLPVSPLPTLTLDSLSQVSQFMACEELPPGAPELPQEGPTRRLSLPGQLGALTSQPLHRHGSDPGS
For `Cc1nnc(-c2ccccc2)c[n+]1[O-]`, the “hERG current change (%, negative = inhibition) at 10uM” value is 12.2%.
`COC(=O)c1sccc1NC(=O)Nc1ccc(F)cc1`: the “hERG current change (%, negative = inhibition) at 10uM” value is listed as 9.98%.
Regarding `CCN1CCN(Cc2ccc(NC(=O)c3cc(NC(=O)C4=NN(c5ccccc5)C(=O)C4)cc(OC)c3)cc2C(F)(F)F)CC1`, the “hERG current change (%, negative = inhibition) at 10uM” value amounted to 5.18%.
For the compound `O=C(c1cc([N+](=O)[O-])ccc1Cl)N1CCN(c2ccc([N+](=O)[O-])cc2)CC1`, the “hERG current change (%, negative = inhibition) at 10uM” value is -73.6%.
Then `O=C1Nc2ccccc2C12OCCS2` (centres unmarked), with 9.86%; and `O=C(CN1CCN(Cc2ccc(F)cc2Cl)C1=O)NCCc1ccccc1`, with -18%.
Then `O=C(CSc1ncnc2nc[nH]c12)N1CCOCC1`, with 3.67%; and `O=C(CCCCCNC(=O)N1CCn2c1nc1ccccc12)NCc1ccc(F)cc1`, with -0.879%; and `COc1ccc(/C=N/NC(=O)c2ccccc2OCc2ccccc2)c(OC)c1`, with -53.8%.
In the case of `COc1ccc2nc(SCC(=O)NC3CCCc4ccccc43)[nH]c2c1` (centres unmarked), the “hERG current change (%, negative = inhibition) at 10uM” value was found to be 0.444%.
The result for `N#Cc1nc(-c2ccc(F)cc2)oc1N1CCC(C(N)=O)CC1` reads -32.1%.
With `Fc1ccc(NC(=S)NC2CC3CCC(C2)N3Cc2ccco2)cc1` (centres unmarked), the “hERG current change (%, negative = inhibition) at 10uM” value is on record as -12.6%.
Turning to `Cc1ccccc1NC(=O)C(C)OC(=O)CNS(=O)(=O)c1ccc(C#N)cc1` (centres unmarked), the “hERG current change (%, negative = inhibition) at 10uM” value is recorded as -4.3%.
For the compound `COc1ccc(S(=O)(=O)N2CCC(C(=O)NCCC(=O)Nc3nccs3)CC2)cc1`, the “hERG current change (%, negative = inhibition) at 10uM” value is recorded as 13.3%.
The result for `CCCN(C(=O)c1nc2nccc(C)n2n1)c1c(N)n(Cc2ccccc2)c(=O)[nH]c1=O` reads 8.27%.
Then `CCCN(CCC)C(=O)CC(c1ccccc1)c1ccc(C)cc1O` (centres unmarked), with -11%; and `CCOC(=O)C(CC)Sc1nc2c(cnn2-c2ccc(F)cc2)c(=O)[nH]1` (centres unmarked), with 20.7%; and `O=C(NC1CC2CCCC(C1)N2C(=O)NC1CCCCC1)c1ccc(F)cc1` (centres unmarked), with 4.98%.
As for `CCOc1ccc2c(c1)sc1nc(C(=O)OC)cc(=O)n12`, the “hERG current change (%, negative = inhibition) at 10uM” value is recorded as -12.9%.
Take `Cc1cccc(Cn2c(SCCO)nc3c2c(=O)n(C)c(=O)n3C)c1`: the “hERG current change (%, negative = inhibition) at 10uM” value is reported as -22.9%.
Regarding `CCOc1ccc(S(=O)(=O)NCCC(=O)OC(C)C(=O)N2CCc3ccccc32)cc1` (centres unmarked), the “hERG current change (%, negative = inhibition) at 10uM” value is reported as -22.6%.
Then `CN(C)S(=O)(=O)c1cc(NC(=O)c2ccc(-n3ccnc3)c([N+](=O)[O-])c2)ccc1Cl`, with -16.3%.
`Cn1[nH]c(C(F)(F)F)cc1=O`: the “hERG current change (%, negative = inhibition) at 10uM” value was found to be 7.42%.
As to `COc1ccc(CN2CCN(Cc3ccco3)CC2)cc1.O=C(O)C(=O)O`, the “hERG current change (%, negative = inhibition) at 10uM” value is given as -4.45%.
Turning to `CCCCn1c(O)c(C(C)=NCc2cc(OC)cc(OC)c2)c(=O)[nH]c1=O`, the “hERG current change (%, negative = inhibition) at 10uM” value is listed as -49.8%.
For the compound `COc1ccc(C(=O)N=c2sc3ccccc3n2C)cc1`, the “hERG current change (%, negative = inhibition) at 10uM” value is listed as 12.5%.
The result for `Cc1ccc(NS(=O)(=O)c2c(C)[nH]c(C)c2C(=O)N2CCCCC2)c(C)c1` reads 7.76%; that for `COC(=O)c1sc(-c2ccc(Cl)cc2)cc1NC(=O)CSCC(=O)O`, 12.1%.
With `CCCCN(C(=O)CSCC(=O)Nc1ccc(C)cc1)c1c(N)n(CC(C)C)c(=O)[nH]c1=O`, the “hERG current change (%, negative = inhibition) at 10uM” value was 6.29%.
Then `Cc1ccc(SC(c2ccc(C)cc2)C(Cn2cncn2)C(=O)c2ccccc2)cc1` (centres unmarked), with 2.98%; and `CCOC(=O)c1cnc2c(c(C)nn2C)c1Oc1ccc(OC)cc1`, with -1.99%; and `COc1cc(C(C[N+](=O)[O-])c2c(C)[nH]c3ccccc23)cc(OC)c1OC` (centres unmarked), with 23.9%.
Then `Cc1ccc(C)c(OCCC(=O)OCC(=O)c2c(N)n(C)c(=O)n(C)c2=O)c1`, with -55.5%; and `COc1ccc2cc3cc(C(=O)NCCN4CCc5ccccc5C4)oc3nc2c1`, with -63.3%.
For the compound `CCOc1ccc(C2NC(=S)NC3=C2CCc2ccccc23)cc1` (centres unmarked), the “hERG current change (%, negative = inhibition) at 10uM” value is recorded as -45.6%.
Then `COc1ccccc1N1CCN(C(C)C(=O)N2CC(C)OC(C)C2)CC1.O=C(O)C(=O)O` (centres unmarked), with 13.4%; and `COC(=O)CSC1=NP(=S)(SCC(=O)OC)N2CCCC2=C1C#N` (centres unmarked), with -12.4%.
`CC(=O)Nc1ccc(NC(=O)COc2ccc(-c3ccccc3)cc2)cc1`: the “hERG current change (%, negative = inhibition) at 10uM” value is listed as 9.64%.
Take `CCC1CN(C(=O)N2CCC(C(=O)NCc3ccc(OC)cc3OC)CC2)c2ccccc2O1` (centres unmarked): the “hERG current change (%, negative = inhibition) at 10uM” value is given as -2.32%.
For the compound `CC1=C(C(=O)Nc2cccc(C(=O)NC(C)c3ccccc3)c2)SCCO1` (centres unmarked), the “hERG current change (%, negative = inhibition) at 10uM” value came out at 8.58%.
As for `Cc1ccc(CNc2ccc(N3C(=O)CCCC3=O)cc2[N+](=O)[O-])cc1`, the “hERG current change (%, negative = inhibition) at 10uM” value is -5.27%.
The result for `O=Cc1ccc2cccnc2n1` reads 6.3%.
The result for `Cc1nnc2n(Cc3ccccc3)c(=O)c3c4c(sc3n12)COC(C(C)C)C4` (centres unmarked) reads -4.44%; that for `O=C(CSc1nnc(CNC(=O)c2cccs2)o1)Nc1cccc(Cl)c1`, -7.94%.
Regarding `COCCn1nnnc1C(c1ccc(OC)cc1)N1CCC(C)CC1` (centres unmarked), the “hERG current change (%, negative = inhibition) at 10uM” value is reported as 12%.
With `CN(CC(=O)Nc1ccc(F)c(F)c1F)C(=O)C1CCC1`, the “hERG current change (%, negative = inhibition) at 10uM” value turned out to be 9.13%.
Regarding `CCN(CC)CC(C)OC(=O)c1cc(OC)c(OC)c(OC)c1.Cl` (centres unmarked), the “hERG current change (%, negative = inhibition) at 10uM” value is reported as -11.5%.
The result for `C[n+]1ccccc1Nc1cc([N+](=O)[O-])ccc1N.[I-]` reads 2.5%; that for `COc1ccc2c(c1)CCCC2NS(=O)(=O)OCC(Cl)(Cl)Cl` (centres unmarked), 8.39%; that for `O=C(N/N=C/c1cc(Br)ccc1O)c1ccncc1`, 5.92%.
Turning to `CCN(CC)c1ccc(N2C(=NC(=O)C3CC3)SC3CS(=O)(=O)CC32)cc1` (centres unmarked), the “hERG current change (%, negative = inhibition) at 10uM” value was 5.74%.
Then `CCOC(=O)C1CCN(Cc2ccc(O)c(OC)c2)CC1`, with -13.7%; and `CC(C)C(=O)Nc1ccc(C(=O)NNC(=O)CCCOc2ccc(Cl)cc2Cl)cc1`, with 24.1%.
As for `CCCCNC(=S)NNC(=O)c1csc(C)c1`, the “hERG current change (%, negative = inhibition) at 10uM” value is listed as -7.71%.
Regarding `CN(C(=O)c1cc2n(n1)C(C(F)(F)F)CC(c1ccco1)N2)c1ccc(OC(F)(F)F)cc1` (centres unmarked), the “hERG current change (%, negative = inhibition) at 10uM” value amounted to 0.998%.
With `Cc1cc(C)c(NC(=O)CSc2nc(=O)n(CCN3CCOCC3)c3c2CCC3)c(C)c1`, the “hERG current change (%, negative = inhibition) at 10uM” value is given as -34.6%.
